Test results from the supplement of paper PMC8728848.
Some of the results follow.

How the values were obtained:
Test in all cases: glycan array binding signal (z-score within array); higher = stronger binding
Details in all cases: glycan notation: IUPAC condensed, linker removed
[1] = biological target: Fuc(a1-2)[Gal(a1-3)]Gal(b1-4)GlcNAc(b1-2)Man(a1-3)[Fuc(a1-2)[Gal(a1-3)]Gal(b1-4)GlcNAc(b1-2)Man(a1-6)]Man(b1-4)GlcNAc(b1-4)[Fuc(a1-6)]GlcNAc
Method in brief: (§1)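 Negative Z-scores can be read as non-binding. The Z-score is calculated within each array and then averaged across arrays of one protein sequence at different concentrations or buffers and across linkers. Arrays, 3228 in all, were curated from the Consortium for Functional Glycomics database and kept only where the protein sequence was available.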

[2] = biological target: Fuc(a1-2)[Gal(a1-3)]Gal(b1-4)GlcNAc(b1-3)GalNAc
Method in brief: as §1

[3] = biological target: Fuc(a1-2)[Gal(a1-3)]Gal(b1-4)GlcNAc(b1-3)[Fuc(a1-2)[Gal(a1-3)]Gal(b1-4)GlcNAc(b1-6)]GalNAc
Method in brief: as §1

[4] = biological target: Fuc(a1-2)[Gal(a1-3)]Gal(b1-4)GlcNAc(b1-6)GalNAc
Method in brief: as §1

[5] = biological target: Fuc(a1-2)[Gal(a1-3)]Gal(b1-4)[Fuc(a1-3)]Glc
Method in brief: as §1

[6] = biological target: Fuc(a1-2)[Gal(a1-3)]Gal(b1-4)[Fuc(a1-3)]GlcNAc
Method in brief: as §1

[7] = biological target: Fuc(a1-2)[Gal(a1-3)]Gal(b1-4)[Fuc(a1-3)]GlcNAc(b1-3)GalNAc
Method in brief: as §1

[8] = biological target: Fuc(a1-2)[Gal(a1-4)]Gal(b1-4)GlcNAc
Method in brief: as §1

[9] = biological target: Fuc(a1-2)[GalNAc(a1-3)]Gal
Method in brief: as §1

[10] = biological target: Fuc(a1-2)[GalNAc(a1-3)]Gal(b1-3)GalNAc(a1-3)[Fuc(a1-2)]Gal(b1-4)GlcNAc
Method in brief: as §1

[11] = biological target: Fuc(a1-2)[GalNAc(a1-3)]Gal(b1-3)GalNAc(b1-3)Gal(a1-4)Gal(b1-4)Glc
Method in brief: as §1

[12] = biological target: Fuc(a1-2)[GalNAc(a1-3)]Gal(b1-3)GlcNAc
Method in brief: as §1

[13] = biological target: Fuc(a1-2)[GalNAc(a1-3)]Gal(b1-3)GlcNAc(b1-2)Man(a1-3)[Fuc(a1-2)[GalNAc(a1-3)]Gal(b1-3)GlcNAc(b1-2)Man(a1-6)]Man(b1-4)GlcNAc(b1-4)GlcNAc
Method in brief: as §1

[14] = biological target: Fuc(a1-2)[GalNAc(a1-3)]Gal(b1-3)GlcNAc(b1-2)Man(a1-3)[Fuc(a1-2)[GalNAc(a1-3)]Gal(b1-3)GlcNAc(b1-2)Man(a1-6)]Man(b1-4)GlcNAc(b1-4)[Fuc(a1-6)]GlcNAc
Method in brief: as §1

[15] = biological target: Fuc(a1-2)[GalNAc(a1-3)]Gal(b1-3)GlcNAc(b1-3)GalNAc
Method in brief: as §1

[16] = biological target: Fuc(a1-2)[GalNAc(a1-3)]Gal(b1-3)GlcNAc(b1-6)GalNAc
Method in brief: as §1

[17] = biological target: Fuc(a1-2)[GalNAc(a1-3)]Gal(b1-4)Glc
Method in brief: as §1

[18] = biological target: Fuc(a1-2)[GalNAc(a1-3)]Gal(b1-4)GlcNAc
Method in brief: as §1

[19] = biological target: Fuc(a1-2)[GalNAc(a1-3)]Gal(b1-4)GlcNAc(b1-2)Man
Method in brief: as §1

[20] = biological target: Fuc(a1-2)[GalNAc(a1-3)]Gal(b1-4)GlcNAc(b1-2)Man(a1-3)[Fuc(a1-2)[GalNAc(a1-3)]Gal(b1-4)GlcNAc(b1-2)Man(a1-6)]Man(b1-4)GlcNAc(b1-4)GlcNAc
Method in brief: as §1

[21] = biological target: Fuc(a1-2)[GalNAc(a1-3)]Gal(b1-4)GlcNAc(b1-2)Man(a1-3)[Fuc(a1-2)[GalNAc(a1-3)]Gal(b1-4)GlcNAc(b1-2)Man(a1-6)]Man(b1-4)GlcNAc(b1-4)[Fuc(a1-6)]GlcNAc
Method in brief: as §1

[22] = biological target: Fuc(a1-2)[GalNAc(a1-3)]Gal(b1-4)GlcNAc(b1-3)Gal(b1-4)GlcNAc
Method in brief: as §1

[23] = biological target: Fuc(a1-2)[GalNAc(a1-3)]Gal(b1-4)GlcNAc(b1-3)Gal(b1-4)GlcNAc(b1-3)Gal(b1-4)GlcNAc
Method in brief: as §1

[24] = biological target: Fuc(a1-2)[GalNAc(a1-3)]Gal(b1-4)GlcNAc(b1-3)GalNAc
Method in brief: as §1

[25] = biological target: Fuc(a1-2)[GalNAc(a1-3)]Gal(b1-4)GlcNAc(b1-3)[Fuc(a1-2)[GalNAc(a1-3)]Gal(b1-4)GlcNAc(b1-6)]GalNAc
Method in brief: as §1

[26] = biological target: Fuc(a1-2)[GalNAc(a1-3)]Gal(b1-4)GlcNAc(b1-6)GalNAc
Method in brief: as §1

[27] = biological target: Fuc(a1-2)[GalNAc(a1-3)]Gal(b1-4)[Fuc(a1-3)]GlcNAc
Method in brief: as §1

[28] = biological target: Fuc(a1-2)[GalNAc(a1-3)]Gal(b1-4)[Fuc(a1-3)]GlcNAc(b1-3)GalNAc
Method in brief: as §1

[29] = biological target: Fuc(a1-2)[GalNAc(a1-4)]Gal(b1-4)GlcNAc
Method in brief: as §1

[30] = biological target: Fuc(a1-2)[GalNAc(b1-3)]Gal
Method in brief: as §1

B1: PV12658A-bvu-496-32-496 (Bacteroides vulgatus) (protein)
chain: DLDGAITTPAAVELALNGIYYSLPGNGFNVIFPTVSGSFKAGTMWRQEIVSAGNAVYYSERMLPTLSFSDATEWDADYAVIKNANFLETACNRMSDGEFSGNRRAEVLGEIAYLRALAYFNILVRYCEFWDMNSEYGVVMRNEAPSVSNALKARSSVADSYQYILDQLEIAIEKAPDWKKLSQASKEAAKALKARVLLYAGKYTEAVAAVNDAIDTNSPLPEANYGDVFDKFSTTKEILFARVFDQKDATNTSTRQQCYGNSPTKKQGYWGPTNEYVELVGDDPRADAIFSKVDSLMDSRSSAVAYNLKSVKKLLNDANDMPVIFSRVSELYLIKAEALYRSGASISEAYAPIRKLRERAGAEIILPANNEELETAIFNEWMLELSFENWHEWFAMIRFAGYTEKPDFTRLLALNKTLREALEKEYEKSEAQGDNYYQRIIDRRIDAIPSSEISSNLECKQNPGY
[1]
  glycan array binding signal (z-score): 0.251
[2]
  glycan array binding signal (z-score): -0.538
[3]
  glycan array binding signal (z-score): -0.18
[4]
  glycan array binding signal (z-score): -0.283
[5]
  glycan array binding signal (z-score): -0.444
[6]
  glycan array binding signal (z-score): -0.298
[7]
  glycan array binding signal (z-score): -0.157
[8]
  glycan array binding signal (z-score): 0.379
[9]
  glycan array binding signal (z-score): -0.151
[10]
  glycan array binding signal (z-score): -0.427
[11]
  glycan array binding signal (z-score): -0.135
[12]
  glycan array binding signal (z-score): -0.302
[13]
  glycan array binding signal (z-score): -0.298
[14]
  glycan array binding signal (z-score): -0.342
[15]
  glycan array binding signal (z-score): -0.535
[16]
  glycan array binding signal (z-score): -0.182
[17]
  glycan array binding signal (z-score): -0.356
[18]
  glycan array binding signal (z-score): -0.36
[19]
  glycan array binding signal (z-score): -0.056
[20]
  glycan array binding signal (z-score): -0.375
[21]
  glycan array binding signal (z-score): -0.215
[22]
  glycan array binding signal (z-score): 0.044
[23]
  glycan array binding signal (z-score): 0.133
[24]
  glycan array binding signal (z-score): -0.285
[25]
  glycan array binding signal (z-score): -0.356
[26]
  glycan array binding signal (z-score): -0.523
[27]
  glycan array binding signal (z-score): -0.318
[28]
  glycan array binding signal (z-score): 0.014
[29]
  glycan array binding signal (z-score): 0.577
[30]
  glycan array binding signal (z-score): 0.193
